Measured values: PubChem BioAssay (NCI)
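Growth conditions: 96-well plates. Treatment: test compound, 48 hours, 5 concentrations. Analysis: linear interpolation between bracketing concentrations; unreached endpoints set to highest concentration. GI50 = concentration required for 50% inhibition of growth.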 Some entries of the source have several records that differ or are many. They are shown here; other results are not. An entry can have further records. For some of these results: Records of one sample usually come from different ranges of test concentrations, which the source does not state; some values may only mark the edge of a range.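 TGI is the concentration that stops growth completely.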 For some of these results: Values given together are repeats (runs, samples, wells, individuals or studies). A tag in brackets gives the origin of a value. Letters hold for one entry only. *1 amine or outer side, *2 acyl side, *3 side chain or, on linkers, in order; H or OH if unused. Where a SMILES comes first, the peptide text is derived from it. Bridges are numbered along the chain shown (N, C = ends). Roman numbers before positions name the chains, in order. [ ]: non-standard residue; d: D form. Actinocin(1to9) = Cc1c2oc3c(C)ccc(C(=O)[*:2])c3nc-2c(C(=O)[*:1])c(N)c1=O; NMeV = CN[CH](C(=O)O)C(C)C; Sar = CNCC(=O)O

Key:
Test in all cases: NCI tumour cell line growth inhibition, 48 h
[1] = tested on: CAKI-1 renal
[2] = tested on: HCC-2998 colon
[3] = tested on: HCT-15 colon
[4] = tested on: K-562 leukemia
[5] = tested on: KM12 colon
[6] = tested on: LOX IMVI melanoma
[7] = tested on: NCI-H522 lung
[8] = tested on: OVCAR-8 ovarian
[9] = tested on: RPMI-8226 leukemia
[10] = tested on: SF-268 CNS
[11] = tested on: SK-OV-3 ovarian
[12] = tested on: U251 CNS
[13] = tested on: A549 NSCLC
[14] = tested on: ACHN renal
[15] = tested on: BT-549 breast
[16] = tested on: CCRF-CEM leukemia
[17] = tested on: COLO 205 colon
[18] = tested on: DU-145 prostate
[19] = tested on: EKVX NSCLC
[20] = tested on: HOP-92 NSCLC
[21] = tested on: MOLT-4 leukemia
[22] = tested on: OVCAR-5 ovarian
[23] = tested on: SK-MEL-2 melanoma
[24] = tested on: SK-MEL-28 melanoma
[25] = tested on: HCT-116 colon
[26] = tested on: HOP-62 NSCLC
[27] = tested on: NCI-H460 lung
[28] = tested on: SF-295 CNS

With `COc1cc2c(cc1OC)[C@@H](Nc1ccc(C#N)cc1)C1COC(=O)[C@@H]1C2c1cc(OC)c(O)c(OC)c1` (some centres undefined) as the molecule, how does the TGI [1] read?
The TGI was 95 µM and 2.66 µM.

And the TGI [2]?
The TGI was 2.21 µM and 34.3 µM.

And the TGI [3]?
Its TGI is 2.64 µM and > 100 µM.

And the GI50 [4]?
The GI50 was 109 nM and 1.15 µM.

And the TGI [4]?
The TGI was 553 nM and 21.5 µM.

What about the TGI [5] of the same molecule?
Its TGI is 6.97 µM and > 100 µM.

And the TGI [6]?
Its TGI is 8.33 µM and > 100 µM.

What about the TGI [7] of the same molecule?
The TGI was 6.21 µM and 89.9 µM.

What about the TGI [8] of the same molecule?
Its TGI is 2.92 µM and > 100 µM.

And the GI50 [9]?
The GI50 was < 9.5 nM and 117 nM.

And the TGI [10]?
The TGI was 4.34 µM and > 100 µM.

What about the TGI [11] of the same molecule?
The TGI was 782 nM and > 100 µM.

What about the TGI [12] of the same molecule?
Its TGI is 558 nM and > 100 µM.

Which results are given for `O=[N+]([O-])c1cccc2nc3ccccc3c(NCCCn3ccnc3[N+](=O)[O-])c12`?
TGI [13]: 0.618 nM and 10.5 nM; TGI [14]: 0.785 nM and > 100 µM; TGI [15]: 0.877 nM and 48 nM; TGI [16]: 281 nM and > 100 µM; TGI [17]: 0.544 nM and 15.3 nM; TGI [18]: 0.541 nM and 14.1 nM; TGI [19]: 4.67 nM and > 100 µM; TGI [3]: 2.55 nM and 332 nM; TGI [20]: 0.894 nM and 13.6 nM; TGI [4]: 0.304 nM and > 100 µM; TGI [5]: 1.56 nM and 53.9 nM; TGI [21]: 17.8 nM and 10.8 µM; TGI [22]: 1.42 nM and 45.5 nM; TGI [10]: 224 nM and > 100 µM; TGI [23]: 0.698 nM and > 100 µM; TGI [24]: 15.3 nM and > 100 µM

For `CN(c1ncccc1CNc1nc(Nc2ccc3c(c2)CC(=O)N3)ncc1C(F)(F)F)S(C)(=O)=O`, which TGI [16] is on record?
The TGI was > 80.3 µM [sample A, mean of 2 tests] and 7.81 µM [sample B, 1 test].

Which TGI [25] does the source give for `CCC(C)C1NC(=O)C(NC(=O)c2c3nc4c(C(=O)NC5C(=O)NC(C(C)CC)C(=O)N6CCCC6C(=O)N(C)CC(=O)N(C)C(C(C)C)C(=O)OC5C)ccc(C)c4oc-3c(C)c(=O)c2N)C(C)OC(=O)C(C(C)C)N(C)C(=O)CN(C)C(=O)C2CCCN2C1=O` (centres undefined) (I: TIP[Sar][NMeV] / II: TIP[Sar][NMeV]; ester I:1-I:C, II:1-II:C; linker I:N-II:N via Actinocin(1to9); configuration not given here) here?
Its TGI is 163 nM and 10.9 µM.

What about the TGI [26] of the same molecule?
The TGI was 21.4 nM and 17.1 µM.

What about the TGI [27] of the same molecule?
Its TGI is 121 nM and 12.2 µM.

What about the TGI [28] of the same molecule?
The TGI was 27.7 nM and 523 nM.
